Data from PubChem BioAssay AID540317 (National Center for Advancing Translational Sciences (NCATS), 2011).
The campaign covered roughly 390,000 compounds. About 2,200 (0.56%) were called active. The shares of active, inactive and inconclusive entries below differ from those in the screen. Calls follow the shape of the dose curve; as a rule, active = well fitted inhibition curve with a large enough effect; inconclusive = small, poorly fitted or top-dose-only effect; inactive = no such curve, though single readings can be large or run the other way. Where the call is inconclusive, the potency comes from a doubtful curve fit.

Target: Chromobox protein homolog 1 (Homo sapiens) (UniProt P83916)
Test: HTS for Inhibitors of HP1-beta Chromodomain Interactions with Methylated Histone Tails; also: nearly all actives have a fitted effect of over 70% in size
Settings: AlphaScreen HP1-beta / biotin-H3K9me3 peptide binding; series mostly up to 114 µM
How it was run: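 Compound inhibition of the preformed complex between 50 nM HP1-beta and 50 nM biotinylated H3K9me3 peptide was read by AlphaScreen. Buffer was PBS pH 7.4 with 0.01% Tween-20. Incubations ran 30 min at room temperature, with 10 ug/mL donor/acceptor beads.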
Potency is read from the fitted curve at half-maximal effect; tags tell the direction and shape of the fitted curve.

Sequence of UniProt P83916 (P83916 whole entry, looked up): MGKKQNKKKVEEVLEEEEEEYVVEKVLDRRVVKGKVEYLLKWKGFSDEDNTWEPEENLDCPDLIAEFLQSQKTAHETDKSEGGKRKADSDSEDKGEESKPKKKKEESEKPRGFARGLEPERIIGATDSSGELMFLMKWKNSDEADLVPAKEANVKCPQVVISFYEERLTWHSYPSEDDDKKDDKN

Structure (SMILES) | Potency
O=C(Nc1nc(-c2ccccc2)cs1)c1ccc(Br)o1 | inconclusive: 10 µM [inhibitor, full curve, poor fit]
CCc1cc(C(c2ccc(OC)c(OC)c2)N2CCOCC2)c(NC(=O)c2ccccc2)s1 (configuration not stated) | inconclusive: 17.8 µM [inhibitor, partial curve, poor fit]
O=[N+]([O-])c1ccc(C(c2sc3nc(-c4ccco4)nn3c2O)N2CCN(Cc3ccccc3)CC2)cc1 (configuration not stated) | inactive
COc1cccc(NC(=S)N(CCCN2CCCC2)Cc2cccn2Cc2ccc(Cl)cc2)c1 | inconclusive: 25.1 µM [inhibitor, full curve]
COc1ccc(/C=N/NC(=O)CN2CCCc3ccccc32)c(OC)c1 | inconclusive: 50.1 µM [inhibitor, partial curve]
O=C(N/C(=C\c1ccccc1)C(=O)N1CCCCCC1)c1ccccc1 | inconclusive: 39.8 µM [inhibitor, single point]
O=C(O)c1cccc(-n2cccc2/C=C2\SC(=O)N(Cc3ccccc3F)C2=O)c1 | inconclusive: 44.7 µM [inhibitor, partial curve, poor fit]
CCOc1cc(/C=N/Nc2nc(N3CCCCC3)nc(N3CCCCC3)n2)ccc1OC(=O)c1ccco1 | inconclusive: 44.7 µM [inhibitor, partial curve, poor fit]
CCOc1cccc(-c2c(C(=O)N/N=C/c3ccoc3)nnn2-c2nonc2N)c1 | inactive
COc1ccc(Nc2nc(C(=O)N3CCc4cc(OC)c(OC)cc4C3)cs2)cc1 | inconclusive: 70.8 µM [inhibitor, partial curve]
COc1ccc(N(Cc2ccc(N(C)C)cc2)C(=O)c2ccc(S(C)(=O)=O)cc2)cc1 | inconclusive: 44.7 µM [inhibitor, partial curve]
O=C(c1cccc2ccccc12)N1CCN(Cc2ccccc2F)CC1 | inconclusive: 14.1 µM [inhibitor, partial curve, poor fit]
CCN(CC)S(=O)(=O)c1ccc(N2CCOCC2)c(NS(=O)(=O)c2cccs2)c1 | inactive
COc1ccc(C(=S)N2CCCCCC2)cc1 | inconclusive: 31.6 µM [inhibitor, partial curve]
O=C(NC(=S)Nc1ccc(CN2CCCCC2)cc1)c1cccc(OCc2ccccc2)c1 | inconclusive: 20 µM [inhibitor, full curve]
COc1ccc(CN2CCc3cc(OC)c(OC)cc3C2)cc1O | inconclusive: 31.6 µM [inhibitor, partial curve]
CCN(CC)C(=O)c1sc(NC(=O)c2ccoc2C)c(C(=O)OC)c1C | inconclusive: 44.7 µM [inhibitor, partial curve]
C=CS(=O)c1sc(Cl)c(N2CCOCC2)c1[N+](=O)[O-] (configuration not stated) | active: 44.7 µM
COc1ccc(N2CCN(C(CNC(=O)c3cccs3)c3ccco3)CC2)cc1 (configuration not stated) | inconclusive: 70.8 µM [inhibitor, partial curve]
O=C(NCCCN1CCOCC1)c1cc(Cl)ccc1OCc1ccccc1 | inactive
COc1ccc(CNCCc2ccc(Cl)cc2)cc1OCc1ccccc1 | inconclusive: 56.2 µM [inhibitor, partial curve, poor fit]

Structure (SMILES) | Potency
CCOC(=O)N1CCN(C/C(C)=C/c2ccccc2)CC1 | inconclusive: 15.8 µM [inhibitor, full curve]
CC1=CC(=NOC(=O)/C=C/c2ccccc2)C=C(C)C1=O | inactive
CCc1ccc[n+](-c2[nH]c(=O)sc2/C=N/N=C(\[O-])CCn2c3ccccc3c3ccccc32)c1 | inconclusive: 79.4 µM [inhibitor, single point]
O=[N+]([O-])c1ccc(Cl)c(/C=N/N2CCN(Cc3ccccc3Cl)CC2)c1 | inconclusive: 12.6 µM [inhibitor, full curve]
OCCNCCCCOc1ccc(F)cc1 | inactive
COc1ccccc1NS(=O)(=O)c1cc(NC(=O)c2cccs2)ccc1N1CCCC1 | inconclusive: 6.31 µM [inhibitor, full curve]
COc1ccc(/C=C2/CCc3ccccc3C2=O)cc1CN1CCOCC1 | inconclusive: 50.1 µM [inhibitor, single point]
COc1cc(CN2CCN(c3cccc(Cl)c3)CC2)cc(OC)c1OC | inconclusive: 15.8 µM [inhibitor, full curve, poor fit]
O=C(/C=C/c1ccco1)N1CCCC(c2ccccc2)C1 (configuration not stated) | inconclusive: 35.5 µM [inhibitor, full curve]
Cc1cc(OCCCCCN2CCCC2)ccc1Cl | inconclusive: 14.1 µM [inhibitor, partial curve]
CN1CCN(c2nc(-c3ccc(Cl)s3)cs2)CC1 | inconclusive: 39.8 µM [inhibitor, full curve]
COc1ccc(O)c(/C=N/c2sc(C)c(C)c2C#N)c1 | inconclusive: 17.8 µM [inhibitor, full curve]
COC(=O)CNC(=O)Cn1c(=O)n(Cc2ccc(F)cc2)c(=O)c2sccc21 | inactive
Cc1cccc(-c2nc(C#N)c(NC3CCCCC3)o2)c1 | inconclusive: 39.8 µM [inhibitor, partial curve]
COc1ccc(S(=O)(=O)N2CCN(c3nc(-c4cccs4)nc4ccccc34)CC2)cc1 | inactive
COc1ccc(C)cc1Nc1c2c(nc3ccccc13)CCC2 | inconclusive: 79.4 µM [inhibitor, partial curve, poor fit]
COCCN(C(=O)Cc1ccc(S(=O)(=O)N2CCOCC2)s1)c1c(N)n(CC(C)C)c(=O)[nH]c1=O | inactive
CN1CCN(CC(=O)N/N=C/c2ccc(F)c(F)c2)CC1 | inconclusive: 44.7 µM [inhibitor, partial curve, poor fit]
O=C(CCN1C(=O)S/C(=C\c2ccc(Cl)cc2)C1=O)Nc1ccc(C(=O)O)cc1 | inconclusive: 89.1 µM [inhibitor, single point]
CN1CCN(CC(=O)Nc2ccccc2[N+](=O)[O-])CC1 | inconclusive: 35.5 µM [inhibitor, single point]
COC(=O)c1cc(-c2ccccc2)sc1NC(=O)CN1C(=O)c2ccccc2C1=O | inconclusive: 28.2 µM [inhibitor, partial curve, poor fit]
